Results on 17 compounds are retold here after the supplement of paper PMC4604168 (melanoma cell lines).

The list shows a part of the results. Most values come without repeats; read them as rough.
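Note: cells treated in 1,536-well plates, then fixed and DAPI-stained, with nuclei counted from automated high-throughput microscope images.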

The test system of this experiment is WM3526. The experiment is described as follows: cell count relative to DMSO control; melanoma cells; higher = more viable cells. Particulars: library dose: standard library concentration; 72 h.
Compound `N#CC[C@H](C1CCCC1)n1cc(-c2ncnc3[nH]ccc23)cn1` [ruxolitinib] + C=CCn1c(=O)c2cnc(Nc3ccc(N4CCN(C)CC4)cc3)nc2n1-c1cccc(C(C)(C)O)n1 [MK1775] (first compound 5 µM, partner dose 0.1 µM) gave a cell count of 84.8%. In the case of `N#CC[C@H](C1CCCC1)n1cc(-c2ncnc3[nH]ccc23)cn1` [ruxolitinib] + C[C@@H]1CCN(C(=O)CC#N)C[C@@H]1N(C)c1ncnc2[nH]ccc12 [CP690550] (first compound 5 µM, partner dose 5 µM) it was 104%; in that of `CC[C@]1(O)C[C@H]2CN(CCc3c([nH]c4ccccc34)[C@@](C(=O)OC)(c3cc4c(cc3OC)N(C=O)[C@H]3[C@@](O)(C(=O)OC)[C@H](OC(C)=O)[C@]5(CC)C=CCN6CC[C@]43[C@@H]65)C2)C1` [vincristine] + CN(C)S(=O)(=O)c1ccc2c(c1)/C(=C/c1cc3c([nH]1)CCCC3)C(=O)N2 [SU6656] (first compound 0.0005 µM, partner dose 2 µM), 30.2%; in that of `Cc1cc(Nc2cc(N3CCN(C)CC3)nc(Sc3ccc(NC(=O)C4CC4)cc3)n2)n[nH]1` [Tozasertib] + Cc1cc(N2CCOCC2)cc2[nH]c(-c3c(NC[C@@H](O)c4cccc(Cl)c4)cc[nH]c3=O)nc12 [BMS536924] (first compound 0.03 µM, partner dose 1 µM), 62.3%. `N#CC[C@H](C1CCCC1)n1cc(-c2ncnc3[nH]ccc23)cn1` [ruxolitinib] + Cn1c(Nc2ccc(C(F)(F)F)cc2)nc2cc(Oc3ccnc(-c4ncc(C(F)(F)F)[nH]4)c3)ccc21 [CHIR265] (first compound 5 µM, partner dose 0.4 µM) gave a cell count of 49.3%. In the case of `CC[C@]1(O)C[C@H]2CN(CCc3c([nH]c4ccccc34)[C@@](C(=O)OC)(c3cc4c(cc3OC)N(C=O)[C@H]3[C@@](O)(C(=O)OC)[C@H](OC(C)=O)[C@]5(CC)C=CCN6CC[C@]43[C@@H]65)C2)C1` [vincristine] + Cc1ccc(NC(=O)c2cccc(N(C)C)c2)cc1NC(=O)c1ccc(O)cc1 [ZM336372] (first compound 0.0005 µM, partner dose 10 µM), the cell count turned out to be 53.7%. Then `N#CC[C@H](C1CCCC1)n1cc(-c2ncnc3[nH]ccc23)cn1` [ruxolitinib] + Cc1ccc(NC(=O)c2cccc(N(C)C)c2)cc1NC(=O)c1ccc(O)cc1 [ZM336372] (first compound 5 µM, partner dose 10 µM), with 94.6%; and `Cc1cc(Nc2cc(N3CCN(C)CC3)nc(Sc3ccc(NC(=O)C4CC4)cc3)n2)n[nH]1` [Tozasertib] + CO[C@@H]1[C@H](N(C)C(=O)c2ccccc2)C[C@H]2O[C@]1(C)n1c3ccccc3c3c4c(c5c6ccccc6n2c5c31)C(=O)NC4 [Midostaurin] (first compound 0.03 µM, partner dose 0.4 µM), with 75.7%. `N#CC[C@H](C1CCCC1)n1cc(-c2ncnc3[nH]ccc23)cn1` [ruxolitinib] + COc1cc(Nc2ncc(F)c(Nc3ccc4c(n3)NC(=O)C(C)(C)O4)n2)cc(OC)c1OC [Tamatinib] (first compound 5 µM, partner dose 2 µM) registered a cell count of 68.3%. In the case of `Cc1cc(Nc2cc(N3CCN(C)CC3)nc(Sc3ccc(NC(=O)C4CC4)cc3)n2)n[nH]1` [Tozasertib] + O=C(O)c1ccc(-c2c[nH]c3ncc(-c4ccccc4)cc23)cc1C1CCCC1 [GSK650394] (first compound 0.03 µM, partner dose 0.8 µM) it was 81.1%; in that of `Cc1cc(Nc2cc(N3CCN(C)CC3)nc(Sc3ccc(NC(=O)C4CC4)cc3)n2)n[nH]1` [Tozasertib] + COc1cc(Nc2ncc(F)c(Nc3ccc4c(n3)NC(=O)C(C)(C)O4)n2)cc(OC)c1OC [Tamatinib] (first compound 0.03 µM, partner dose 2 µM), 81.6%; in that of `Cc1cc(Nc2cc(N3CCN(C)CC3)nc(Sc3ccc(NC(=O)C4CC4)cc3)n2)n[nH]1` [Tozasertib] + Cn1cncc1[C@@](N)(c1ccc(Cl)cc1)c1ccc2c(c1)c(-c1cccc(Cl)c1)cc(=O)n2C [tipifarnib] (first compound 0.03 µM, partner dose 0.05 µM), 83.8%. In turn, `CC[C@]1(O)C[C@H]2CN(CCc3c([nH]c4ccccc34)[C@@](C(=O)OC)(c3cc4c(cc3OC)N(C=O)[C@H]3[C@@](O)(C(=O)OC)[C@H](OC(C)=O)[C@]5(CC)C=CCN6CC[C@]43[C@@H]65)C2)C1` [vincristine] + NC(=O)Nc1cc(-c2cccc(F)c2)sc1C(=O)N[C@H]1CCCNC1 [AZD7762] (first compound 0.0005 µM, partner dose 0.1 µM) displayed a cell count of 32.3%. In turn, `Cc1cc(Nc2cc(N3CCN(C)CC3)nc(Sc3ccc(NC(=O)C4CC4)cc3)n2)n[nH]1` [Tozasertib] + CN(C)S(=O)(=O)c1ccc2c(c1)/C(=C/c1cc3c([nH]1)CCCC3)C(=O)N2 [SU6656] (first compound 0.03 µM, partner dose 2 µM) showed a cell count of 75%. `N#CC[C@H](C1CCCC1)n1cc(-c2ncnc3[nH]ccc23)cn1` [ruxolitinib] + COc1cc2c(Oc3ccc4[nH]c(C)cc4c3F)ncnc2cc1OCCCN1CCCC1 [cediranib] (first compound 5 µM, partner dose 2 µM): the cell count was 119%. Then `CC[C@]1(O)C[C@H]2CN(CCc3c([nH]c4ccccc34)[C@@](C(=O)OC)(c3cc4c(cc3OC)N(C=O)[C@H]3[C@@](O)(C(=O)OC)[C@H](OC(C)=O)[C@]5(CC)C=CCN6CC[C@]43[C@@H]65)C2)C1` [vincristine] + COc1cc2c(Oc3ccc4[nH]c(C)cc4c3F)ncnc2cc1OCCCN1CCCC1 [cediranib] (first compound 0.0005 µM, partner dose 2 µM), with 57.9%.

In the case of `CC[C@]1(O)C[C@H]2CN(CCc3c([nH]c4ccccc34)[C@@](C(=O)OC)(c3cc4c(cc3OC)N(C=O)[C@H]3[C@@](O)(C(=O)OC)[C@H](OC(C)=O)[C@]5(CC)C=CCN6CC[C@]43[C@@H]65)C2)C1` [vincristine] + O=C(Nc1cccc(Cl)c1)Nc1ncc(CCNc2ncnc3ccsc23)s1 [SNS314] (first compound 0.0005 µM, partner dose 0.004 µM), the cell count came out at 27.3%.
